24 compounds from PMC4336329 (PLoS ONE, 2015) can be followed below.

Each structure is given as a SMILES string. Among all 310,000 compounds or so, about 14,000 (4.5%) showed an effect of 50% or more. Effects have a minus sign here. The list shows a part of the results.
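Also: peak tail current of the secondary pulse compared with the same well before compound.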

This test deals with human ether-à-go-go-related gene (hERG) potassium channel (human, UniProt Q12809). The experiment in a line: primary screen, population patch clamp on CHO cells stably expressing hERG.
human ether-à-go-go-related gene (hERG) potassium channel, sequence (Q12809 whole entry, looked up): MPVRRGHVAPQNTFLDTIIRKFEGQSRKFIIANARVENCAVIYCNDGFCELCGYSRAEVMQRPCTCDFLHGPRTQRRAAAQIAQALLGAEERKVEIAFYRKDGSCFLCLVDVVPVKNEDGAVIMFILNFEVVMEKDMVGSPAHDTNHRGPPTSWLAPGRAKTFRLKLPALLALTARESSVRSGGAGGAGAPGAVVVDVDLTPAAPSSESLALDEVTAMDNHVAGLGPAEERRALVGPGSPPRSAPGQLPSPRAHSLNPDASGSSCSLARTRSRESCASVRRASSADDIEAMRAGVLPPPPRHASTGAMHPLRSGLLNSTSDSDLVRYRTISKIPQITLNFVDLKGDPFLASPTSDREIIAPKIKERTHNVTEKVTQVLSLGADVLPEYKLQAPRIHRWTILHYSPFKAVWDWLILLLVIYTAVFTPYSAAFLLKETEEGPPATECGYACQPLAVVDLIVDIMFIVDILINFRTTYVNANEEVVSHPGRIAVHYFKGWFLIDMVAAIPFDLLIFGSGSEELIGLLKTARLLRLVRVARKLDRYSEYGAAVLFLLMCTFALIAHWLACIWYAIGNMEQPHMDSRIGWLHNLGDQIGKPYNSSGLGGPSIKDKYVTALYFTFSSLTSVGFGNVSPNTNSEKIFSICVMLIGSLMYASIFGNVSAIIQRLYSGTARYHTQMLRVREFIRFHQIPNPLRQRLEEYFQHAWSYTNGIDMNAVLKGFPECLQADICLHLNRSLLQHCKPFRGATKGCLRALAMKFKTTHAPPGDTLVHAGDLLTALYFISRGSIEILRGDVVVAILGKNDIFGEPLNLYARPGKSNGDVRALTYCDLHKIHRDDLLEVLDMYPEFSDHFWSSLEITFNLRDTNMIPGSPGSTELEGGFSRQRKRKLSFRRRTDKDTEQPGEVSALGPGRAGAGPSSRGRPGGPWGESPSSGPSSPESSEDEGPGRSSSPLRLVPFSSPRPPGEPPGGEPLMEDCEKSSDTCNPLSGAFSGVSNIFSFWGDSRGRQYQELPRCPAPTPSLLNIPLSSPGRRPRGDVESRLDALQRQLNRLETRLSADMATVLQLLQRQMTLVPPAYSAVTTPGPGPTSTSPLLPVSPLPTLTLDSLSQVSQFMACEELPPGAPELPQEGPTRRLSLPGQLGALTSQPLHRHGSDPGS
`COc1ccc(NC(=O)N2CCCC(CNS(=O)(=O)c3cccs3)C2)c(C)c1` (stereo not drawn): the “hERG current change (%, negative = inhibition) at 10uM” value is recorded as 10.9%.

Turning to `Cc1cc(C)c(NC(=O)COC(=O)c2ccc([N+](=O)[O-])s2)c(C)c1`, the “hERG current change (%, negative = inhibition) at 10uM” value was 0.0437%. As for `CC1CCCCC1NC(=O)CSc1nnc(-c2ccco2)n1C` (stereo not drawn), the figure is -1.47%; as for `Cc1cccc2cc(COC(=O)C(C)(C)C)c(=O)[nH]c12`, 12.8%; as for `O=C(CCc1ccccc1O)N/N=C/c1ccc(Sc2cccc3cccnc23)o1`, 21.8%. In the case of `CCN(c1ccccc1)S(=O)(=O)c1ccc2ccccc2c1`, the “hERG current change (%, negative = inhibition) at 10uM” value is reported as -3.29%. With `COc1ccc(CC(=O)c2ccc(OC)c(OC)c2)cc1`, the “hERG current change (%, negative = inhibition) at 10uM” value came out at 5.48%.

As to `COc1ccc(OC)c(CN2CCN(C(=O)CNC(=O)c3ccc(C(C)(C)C)cc3)CC2)c1`, the “hERG current change (%, negative = inhibition) at 10uM” value is recorded as -53.9%. Under `CCCCn1cc(C(C)(C)C)c(C#N)c1NC(C)=O` stands 17.4%; under `O=C(NCC1(N2CCCCC2)CCCCC1)C1CC(=O)N(c2ccc3c(c2)OCCO3)C1` (stereo not drawn), 20.6%; under `COC(=O)C1=C(c2ccc(C(C)=O)cc2)C[C@@H]2CC[C@H]1N2C(=O)N1CCOCC1`, 11.8%.

Turning to `COc1ccccc1N1CCN(C(=O)c2cc(-c3ccc(C)cc3)on2)CC1`, the “hERG current change (%, negative = inhibition) at 10uM” value is given as -4.06%. As for `COc1ccc(-c2[nH]ncc2CN2CCN(Cc3cccs3)CC2)c(F)c1`, the figure is -31.9%; as for `COc1cccc(NC(=S)Nc2cccc3ccccc23)c1`, 17.9%; as for `Cc1cc(C(=O)CCC(=O)Nc2ncccc2O)c(C)s1`, -17.5%. As for `CC(C)(C)NC(=O)c1cccc(NC(=O)c2ccco2)c1`, the figure is 4.04%; as for `CN(C)c1ccc(/C=C/C=C2/SC(=S)N(c3ccccc3)C2=O)cc1`, 9.2%; as for `O=C(O)c1cccc(NC(=O)c2ccc(Cl)c(S(=O)(=O)N3CCCCCC3)c2)c1`, 21.8%. As for `CCn1c(C)nc2cc(-c3nnc(-c4c(-c5ccccc5)noc4C)o3)ccc21`, the figure is -25.2%.

Turning to `CC1(C)Cc2c(sc3nc(SCC(=O)N4CCOCC4)nc(N)c23)CO1`, the “hERG current change (%, negative = inhibition) at 10uM” value is -6.36%. Take `O=C(O)c1ccc(NS(=O)(=O)c2cccc(C(=O)Nc3ccc(Br)cc3)c2)cc1`: the “hERG current change (%, negative = inhibition) at 10uM” value came out at 10.4%. As for `O=C(Cn1c(CCCO)nc2ccccc21)Nc1ccccc1-c1ccccc1`, the “hERG current change (%, negative = inhibition) at 10uM” value is recorded as -7.12%.

As to `CCN1C(=O)/C(=C/c2cn(C)nc2C)SC1=S`, the “hERG current change (%, negative = inhibition) at 10uM” value is -5.39%. In the case of `CN1C[C@@H]2C(c3ccc(C(F)(F)F)cc3)C3(c4ccccc4)CC2(C3)[C@H]1c1ccccc1` (stereo partly drawn), the “hERG current change (%, negative = inhibition) at 10uM” value is -1.14%.
